Data reported in the supplement of paper PMC9513381.

Legend:
[1] = molecular target: SARS-CoV-2 Wuhan-Hu-1 spike pseudovirus; experiment: pseudovirus neutralization IC50; higher = weaker neutralization
Description: (§1)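 Single-round luciferase reporter pseudovirus mixed with antibody dilutions and put on 293T-ACE2 cells for 48 h; signal relative to no-antibody wells, four-parameter fit.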

[2] = molecular target: SARS-CoV-2 Wuhan-Hu-1 spike pseudovirus; experiment: pseudovirus neutralization IC90; higher = weaker neutralization
Description: as §1

[3] = molecular target: SARS-CoV-2 Delta (B.1.617.2) spike RBD; experiment: ELISA binding EC50; higher = weaker binding; ELISA of recombinant human antibody on coated antigen, from 10 µg/ml in fourfold dilutions; four-parameter fit.
[4] = molecular target: SARS-CoV-2 Omicron BA.1 spike protein; experiment: as above
[5] = molecular target: SARS-CoV-2 Wuhan-Hu-1 spike receptor-binding domain; experiment: as above

Binder | pseudovirus neutralization IC50 [1] [µg/mL] | pseudovirus neutralization IC90 [2] [µg/mL] | ELISA binding EC50 [3] [µg/mL] | ELISA binding EC50 [4] [µg/mL] | ELISA binding EC50 [5] [µg/mL]
B1060 (protein) chain 1: QVQLVQSGPEVKKPGTSVKVSCKSSEFTLTPSAVQWVRQARGQRLEWIGWIVVGSGKTDYAGNLRERVTITRDTSTGTVYMEVNSLRSEDTAVYFCAAPHCNRTKCHDGFDMWGQGTMVTVSS chain 2: EIVLTQSPGTLSLSPGERATLSCRASQSVSSNYLAWYQQKPGQAPRLLIYGASSRATGIPDRFGGSGSGTDFILTISRLEPEDFAVYHCQQYGISPWTFGQGTKVEIK | 0.00466 | 0.0166 | 0.0157 | 0.218 | 0.0027
B1059 (protein) chain 1: QVQLVESGGGLVKPGGSLRLSCAASGFTFTNYYMTWIRQAPGKGLEWVSYIRSENGNTYYADSVKGRFTISRDNAKNLLYLQMNNLRVEDTAVYYCARDLDTVTLNGIYWYFDLWGRGTLVTVSS chain 2: DIQMTQSPSSVSASVGDRVTITCRASQGISRSVAWYQQKPGEAPKLLIYAASSLQSGVPSRFSGSGSGTDFTLVISSLQPEDFATYYCQQSNSVYLLSFGGGTKVEIK | 0.0144 | 0.0499 | 0.0312 | 0.0103 | 0.00143
B1061 (protein) chain 1: EVQLVQSGPEVKKPGESLKISCRASGYSFTNYWIGWVRQIPGKGLEWLGIIYPGDSDTTYSPSFQDHVTLSADNSISTAYLQWNSLKASDTAMYYCARLAVVIDLSVFDFWGQGTLVTVS chain 2: DIQLTQSPSFLSASVGDRVTITCRASQGISKYLGWYQQKPGKAPKLLIYGASTLHSGVPSRFSGSGSGTEFTLTIRSLQPEDFATYYCQHLNSYLITFGQGTRLEIK | 0.00286 | 0.00872 | 0.0238 | 0.00957 | 0.00263
B1062 (protein) chain 1: EVQLVQSGAEVKKPGESLKISCKGSGYTFANYYIGWVRQLPGKGLDWLGIIYPGDSETIYSPSFQGPATISADKSISTAYLQWSSLRASDTAMYYCARLGVDIDVLPFDYWAQGTLVTVSS chain 2: DIQLTQSPSFLSASVGDRVTITCRASQDISSYLAWYQQKPGKAPKLLIYAASTLHSGVPSRFSGSGSGTEFTLTINSLQPEDFATYYCQQLNSYSFTFGPGTKVDIK | 0.00382 | 0.0196 | 0.0148 | 0.0676 | 0.00268
B035 (protein) chain 1: QVQLQESGPGLVKPSETLSVTCAVSGYSISSSYYWGWIRQSPGRGLEWIGSIYHSGTTYYNPSVKSRLTISVDTSTNQFSLTLRSVTAADTAMYYCASNSGQVVIGAFDIWGQGTMVTVSS chain 2: DIQMTQSPSSLSASVGDRVTITCQASQDISNYLNWYQQKPGKAPKLLIYGASNLETGVPSRFSGSGSGTDFTFTISSLQPEDIATYYCQKYDNVPLTFGGGTKVEIK | > 1 | > 1 | > 1 | > 1 | 0.00706
B1063 (protein) chain 1: QVQLQESGPGLVKPSGTLSLTCAVSGGSIRSSNWWSWVRQPPGKGLEWIGEIYLSGSTDYNPSLKSRVTISVDKSKNRLSLNLTSVTAADTAVYYCATMGNTDMVPKNYYMDVWGKGTTVTVSS chain 2: EIVLTQSPATLSLSPGERATLSCRASQTVSSYLAWYQQKPGQAPRLLIYDTSARATGIPARFSGSGSGTDFTLTISSLEPEDFAVYYCQQRSDWPPTFGQGTRLEI | 0.00445 | 0.0167 | 0.00239 | 0.00542 | 0.00263
B2000 (protein) chain 1: EVQLVQSGAEVKKPGESLKISCKGFGYSFSNYWIAWVRQMPGKGLEWMGIIYPEDSDTRDSPSSQGQVTMSVDKSTSTAYLQWSSLKASDTAMYYCVRRSGHLIWHGFDIWGQGTMVTVSS chain 2: DIQLTQSPSSLSASVGDRVTVTCRASQGINYFLAWFQQKPGKAPKSLIYAASSLQSGVPSRFSGSGSGTDFTLTISSLQPEDFATYFCLQYYSYPWTFGPGTKVEIK | 0.00514 | 0.0264 | 0.0191 | 0.0381 | 0.00363

Recombinant human monoclonal antibodies (heavy:light variable regions). ELISA EC50 on the named antigen, from 10 µg/ml down; IC50 / IC90 against spike pseudovirus on 293T-ACE2 cells, 48 h; lower = stronger. Calls: IC50 above 1,000 ng/ml = non-neutralizing; EC50 above 1,000 ng/ml = non-binder. The source prints 1000 for neutralization that was not reached; it is given as >1000 ng/ml. Only binders of the Wuhan-Hu-1 domain have neutralization values.
